PubChem BioAssay AID1508623 (National Center for Advancing Translational Sciences (NCATS), 2021)
Screen size: about 48,000 compounds; about 450 (0.94%) were called active. Inconclusive results (about 19%) are left out. The call rests on the fitted dose curve; in most records, active means well fitted inhibition curve with a large enough effect; inconclusive means small, poorly fitted or top-dose-only effect; inactive means no such curve, though single readings can be large or run the other way. The list shows a part of the results.

Test: Primary qHTS for Identification of Small Molecule Inhibitors of Huntingtin Promoter Activity; further: nearly all actives have a fitted effect of over 50% in size
Conditions: HEK293 HTT promoter firefly luciferase reporter (activity 0% = vehicle and -100% = no light), 24 h; series mostly up to 57.5 µM; activity change, negative = inhibition: at the top concentration
In short: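 Luminescence was read after Dual-Glo reagent and a 10 min room-temperature incubation. Values were normalized to vehicle (0% activity) and zero RLU (-100% activity). Reporter HEK293 cells had been exposed to compounds (up to 57.5 uM final) for 24 h.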

Structure (SMILES)	activity change, negative = inhibition
CCOC(=O)c1[nH]c2ccccc2c1NC(=O)c1ccc(OC(C)C)cc1	inactive: 14.9%
COc1cc(OC)cc(C(=O)Nc2ccc(S(=O)(=O)Nc3cc(C)nc(C)n3)cc2)c1	inactive: 16.6%
COc1ccc(CCN2CC(C(=O)NCCc3ccc(C)cc3)CC2=O)cc1OC (stereo not drawn)	inactive: -28.3%
CCCCn1c(COc2cccc(OC)c2)nc2ccccc21	inactive: -3.15%
NC(=O)N/N=C/c1ccc([N+](=O)[O-])o1	inactive
CC(C)NC(=O)c1ccc(-n2c(-c3ccccc3)cc3c2CCCCC3)cc1	inactive: 12.9%
COc1ccc(Cl)cc1NC(=O)Cn1cc(C(=O)c2ccncc2)c(=O)c2cc(C)ccc21	inactive: -19.9%
Nc1ncc(S(=O)(=O)NCc2ccc(Cl)cc2)cn1	inactive: -3.75%
CCC(Sc1nc2cc(OC)c(OC)cc2c(=O)n1CCc1ccc(Cl)cc1)C(=O)NCCOC (stereo not drawn)	inactive: -4.65%
Cc1cc(C)cc(OCC(=O)Nc2ccc(-c3nc4ccccc4s3)cc2)c1	inactive: 40.4%
Cn1nnc2c(N3CCN(c4ccccc4F)CC3)ncnc21	inactive: 5.55%
Cc1ccccc1C(=O)Nc1cccc(C(=O)OCc2cc(=O)n3c4c(sc3n2)CCCC4)c1	inactive: -18.6%
Cc1ccc(-n2c(SCC(=O)NCc3ccc(F)cc3)nc3c([nH]c4ccccc43)c2=O)cc1	inactive: -34.2%
Cc1ccc2oc3c(c(=O)c2c1)C(c1ccccc1F)N(CCCN1CCOCC1)C3=O (stereo not drawn)	inactive: 13%
COc1ccc(N(CC(=O)NCCc2ccccc2)S(=O)(=O)c2ccccc2)c(OC)c1	inactive: -22.1%
Cc1ccc(Nc2c(-c3ccncc3)nc3ccc(C)cn23)cc1	inactive: -9.39%
CCOc1ccc(OCC)c(S(=O)(=O)N2CCN(c3cccc(C)c3C)CC2)c1	inactive: -2.22%
CCOC(=O)C1CCN(c2ncnc3c2nnn3C)CC1	inactive: -7.65%
Cc1ccc(CN(C(=O)COc2cccc([N+](=O)[O-])c2)c2ccccn2)cc1	inactive: -38.8%
Cc1cc(C)cc(N2CCn3c2nc2c3c(=O)n(Cc3ccc(Cl)cc3)c(=O)n2C)c1	inactive: -8.12%
CC(C)c1ccc(CNc2nc(-c3ccco3)nn2S(=O)(=O)c2ccc3ccccc3c2)cc1	inactive: 18.1%
O=S(=O)(c1ccccc1)c1nc(-c2ccc(Cl)cc2Cl)oc1N1CCCCCC1	inactive: -18.6%
CC(=O)N[C@@H](CCC(=O)O)C(=O)O	inactive: -0.213%
CN(C)CCC[C@@]1(c2ccc(F)cc2)OCc2cc(C#N)ccc21	inactive: -9.7%

Structure (SMILES)	activity change, negative = inhibition
COc1ccc(CNC(=O)Cn2nnc(-c3ccc(S(C)(=O)=O)cc3)n2)cc1	inactive: -7.18%
COc1cccc2c1cc1c(=O)n(CC(=O)N3CCN(c4cc(Cl)ccc4C)CC3)nc(C)n12	inactive: -7.77%
CCC1CCCCN1CC(=O)N1CCCc2c1c(=O)oc1ccc(OCc3ccccc3)cc21 (stereo not drawn)	inactive: -38.8%
CCOc1ccc(-n2c(C)nc3cc(C(=O)NCCC4=CCCCC4)ccc32)cc1	inactive: 5.3%
COc1ccc(CNC(=O)CCC(=O)N2CCSc3ccccc32)cc1	inactive: -0.797%
CCCC1OC2C[C@@H]3[C@H]4CCC5=CC(=O)C=C[C@]5(C)[C@H]4C(O)C[C@]3(C)[C@]2(C(=O)CO)O1 (stereo partly drawn)	inactive: -5.92%
CCOC(=O)c1ccc(NC(=O)C2=C(C)Nc3nc(SCc4ccc(Cl)cc4)nn3C2c2ccc(OC)cc2)cc1 (stereo not drawn)	inactive: -4.13%
Cc1ccccc1NS(=O)(=O)c1ccc(Br)s1	inactive: -17.8%
COc1ccc(-c2nc3sc(CCNC(=O)c4cc(Cl)ccc4OC)c(C)n3n2)cc1	inactive: 24%
CN(Cc1ccccc1)S(=O)(=O)c1ccc(F)c(C(=O)Nc2cccc(Cl)c2Cl)c1	inactive: -6.09%
Cc1ccc(C(C)(C)C)c(OCC(=O)NCCc2nc3ccccc3[nH]2)c1	inactive: 4.12%
CCN(CC)c1cc2c(cc1F)c(=O)c(S(=O)(=O)c1cc(C)ccc1C)cn2Cc1ccccc1	inactive: -20.9%
CCOc1ccc(C2=NC(c3cccs3)=Nc3ccc(C(C)C)cc3N2)cc1	inactive: 3.37%
CCOc1ccccc1-n1nnc(-c2nc(-c3ccccc3)no2)c1N	inactive: 36.6%
Cc1c(/C=C(\C#N)C(=O)Nc2cccc(Cl)c2)c2ccccc2n1Cc1ccccc1Cl	inactive: -23.3%
CCOC(=O)c1cccc(NC(=O)C2CCN(S(=O)(=O)c3ccc4c(c3)oc(=O)n4C)CC2)c1	inactive: -21.1%
COc1ccccc1N1CCN(c2ncnc3c2cnn3C)CC1	inactive: -3.67%
CCc1ccc(C(=O)COC(=O)C(Cc2c[nH]c3ccccc23)NC(=O)c2ccc(Br)cc2)cc1 (stereo not drawn)	inactive: -3.12%
CCc1cccc(C)c1NC(=O)Cn1ccn(-c2ccc(F)cc2)c(=O)c1=O	inactive: -11.7%
CCOc1ccc(C2CC(=O)c3c([nH]c(C(=O)OCc4ccccc4)c3C)C2)cc1 (stereo not drawn)	inactive: -27.8%
COc1ccc(CCN2C(=O)c3oc4ccc(F)cc4c(=O)c3C2c2ccc(C(C)(C)C)cc2)cc1 (stereo not drawn)	inactive: -9.6%
O=C(CSc1nc(-c2ccccc2)no1)N1CCCCC1	inactive: -2.11%
COc1ccc(C(=O)CN2C(=O)N(c3ccc(C(C)=O)cc3)S(=O)(=O)c3ccccc32)cc1	inactive: -20.7%
Cc1ccc(Cn2nnc(C(=O)Nc3ccc(F)c(F)c3)c2N)cc1	inactive: -16.6%
